# Measured values: PubChem BioAssay AID504333 (National Center for Advancing Translational Sciences (NCATS), 2011)
# Among all 360,000 compounds or so, about 16,000 (4.4%) were called active. The inconclusive results got no clear call from the source; some entries with a clear call stand among them for comparison. The call rests on the fitted dose curve; in most records, active means well fitted inhibition curve with a large enough effect; inconclusive means small, poorly fitted or top-dose-only effect; inactive means no such curve, though single readings can be large or run the other way. Potencies beside an inconclusive call are fits to weak or partial responses and may not hold up.
# Target: Bromodomain adjacent to zinc finger domain protein 2B (Homo sapiens) (UniProt Q9UIF8)
# Experiment: qHTS Assay for Inhibitors of BAZ2B; further: nearly all actives have a fitted effect of over 60% in size
# Settings: AlphaScreen BAZ2B-H3K14Ac peptide displacement; series mostly up to 114 µM
# Outline: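 AlphaScreen displacement: compounds (up to 110uM) incubated 30 min at room temperature with a preformed 50 nM BAZ2B/50 nM biotinylated H3K14Ac peptide complex in PBS pH 7.4 with Tween-20. Donor and acceptor beads at 10 ug/mL final added, 20 min light-protected before reading.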
# Potency means the concentration at half of the fitted maximal effect; tags describe the fitted curve by direction and shape.
# Sequence of UniProt Q9UIF8 (Q9UIF8 whole entry, looked up, the tested form may be a part): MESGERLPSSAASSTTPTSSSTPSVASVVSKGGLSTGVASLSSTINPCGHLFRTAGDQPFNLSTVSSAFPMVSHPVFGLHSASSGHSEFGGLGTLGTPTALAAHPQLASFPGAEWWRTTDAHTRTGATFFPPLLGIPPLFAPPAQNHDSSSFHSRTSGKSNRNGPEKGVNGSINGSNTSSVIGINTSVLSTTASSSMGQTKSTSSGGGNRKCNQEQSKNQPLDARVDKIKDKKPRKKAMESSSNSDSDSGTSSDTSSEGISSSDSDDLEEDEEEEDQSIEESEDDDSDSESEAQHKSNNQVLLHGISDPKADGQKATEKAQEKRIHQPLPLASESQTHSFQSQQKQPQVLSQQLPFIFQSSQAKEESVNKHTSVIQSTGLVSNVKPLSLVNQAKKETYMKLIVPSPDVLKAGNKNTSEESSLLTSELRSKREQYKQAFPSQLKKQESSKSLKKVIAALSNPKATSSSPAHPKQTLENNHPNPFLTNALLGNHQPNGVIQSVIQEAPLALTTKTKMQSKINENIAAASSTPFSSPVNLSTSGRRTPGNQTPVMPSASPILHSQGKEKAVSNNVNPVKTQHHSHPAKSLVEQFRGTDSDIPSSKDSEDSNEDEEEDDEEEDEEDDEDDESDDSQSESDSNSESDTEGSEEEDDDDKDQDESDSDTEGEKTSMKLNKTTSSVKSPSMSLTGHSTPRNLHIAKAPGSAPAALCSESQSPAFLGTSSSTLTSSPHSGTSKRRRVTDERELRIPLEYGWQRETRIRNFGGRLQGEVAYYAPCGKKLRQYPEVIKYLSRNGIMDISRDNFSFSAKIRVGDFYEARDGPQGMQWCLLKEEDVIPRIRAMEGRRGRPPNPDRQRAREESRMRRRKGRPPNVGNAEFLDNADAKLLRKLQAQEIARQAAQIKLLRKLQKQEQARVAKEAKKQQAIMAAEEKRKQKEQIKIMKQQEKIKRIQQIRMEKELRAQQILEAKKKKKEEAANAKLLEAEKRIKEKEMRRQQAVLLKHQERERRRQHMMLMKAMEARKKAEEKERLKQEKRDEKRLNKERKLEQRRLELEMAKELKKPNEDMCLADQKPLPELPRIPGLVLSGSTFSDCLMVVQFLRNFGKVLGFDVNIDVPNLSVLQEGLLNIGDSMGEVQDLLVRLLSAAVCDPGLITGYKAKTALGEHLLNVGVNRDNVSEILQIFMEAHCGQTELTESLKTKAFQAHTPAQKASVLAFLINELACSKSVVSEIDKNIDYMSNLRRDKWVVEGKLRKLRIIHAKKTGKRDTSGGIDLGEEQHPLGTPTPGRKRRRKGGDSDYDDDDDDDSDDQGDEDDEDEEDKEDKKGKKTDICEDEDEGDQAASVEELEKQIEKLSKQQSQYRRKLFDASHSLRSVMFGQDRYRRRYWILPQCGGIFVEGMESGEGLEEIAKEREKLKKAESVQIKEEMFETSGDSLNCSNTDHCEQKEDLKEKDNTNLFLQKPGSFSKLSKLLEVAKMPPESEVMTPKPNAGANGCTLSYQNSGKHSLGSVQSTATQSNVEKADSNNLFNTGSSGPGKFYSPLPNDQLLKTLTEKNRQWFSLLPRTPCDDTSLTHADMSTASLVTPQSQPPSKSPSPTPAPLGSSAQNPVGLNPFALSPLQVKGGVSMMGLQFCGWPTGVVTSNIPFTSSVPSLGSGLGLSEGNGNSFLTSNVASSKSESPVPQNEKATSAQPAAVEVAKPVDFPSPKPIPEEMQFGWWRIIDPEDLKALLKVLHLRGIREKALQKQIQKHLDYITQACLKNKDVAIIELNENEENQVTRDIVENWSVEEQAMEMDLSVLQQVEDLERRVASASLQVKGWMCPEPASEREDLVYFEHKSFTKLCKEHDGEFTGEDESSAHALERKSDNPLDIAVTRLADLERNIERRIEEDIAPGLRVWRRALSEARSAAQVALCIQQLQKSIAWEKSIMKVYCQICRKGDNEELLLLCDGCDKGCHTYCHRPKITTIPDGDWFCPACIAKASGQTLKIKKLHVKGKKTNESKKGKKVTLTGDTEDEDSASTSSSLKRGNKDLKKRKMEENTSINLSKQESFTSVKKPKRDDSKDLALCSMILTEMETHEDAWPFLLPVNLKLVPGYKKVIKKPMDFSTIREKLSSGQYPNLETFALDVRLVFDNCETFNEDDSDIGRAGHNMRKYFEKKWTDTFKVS
row,SMILES,Potency
1,Cc1[nH]c2ccccc2c1C(=O)/C=C\c1ccccc1Cl,"inconclusive: 44.7 µM [inhibitor, partial curve]"
2,CCOc1ccc(S(=O)(=O)N2CCN(C(=O)c3cc([N+](=O)[O-])ccc3N3CCOCC3)CC2)cc1,inactive
3,COc1ccc(CCN2C(=O)CC(N3CCN(S(=O)(=O)c4ccccc4)CC3)C2=O)cc1 (configuration not stated),"inconclusive: 79.4 µM [inhibitor, single point]"
4,CCOC(=O)C1=C(C)NC(C)=C(C(=O)OCC)C1c1ccc(C)o1,"inconclusive: 70.8 µM [inhibitor, single point]"
5,COc1cc(Br)c(-c2sc(Nc3ccccc3)n[n+]2-c2ccccc2)cc1OC,"inconclusive: 25.1 µM [inhibitor, full curve]"
6,Cc1ccc(CCNS(=O)(=O)c2cc(-c3cc(C)no3)ccc2C)cc1,inactive
7,CC1CN(C(=O)c2cc3cc([N+](=O)[O-])ccc3oc2=O)CC(C)O1 (configuration not stated),inactive
8,CCc1cccc2sc(N3CCN(C(=O)c4ccc([N+](=O)[O-])o4)CC3)nc12,"inconclusive: 25.1 µM [inhibitor, full curve]"
9,O=Cc1cc([N+](=O)[O-])ccc1N1CCN(Cc2ccc3c(c2)OCO3)CC1,"inconclusive: 44.7 µM [inhibitor, partial curve]"
10,CCOc1ccc(NC(=O)C(=O)NCCN2CCN(S(=O)(=O)c3ccc(C)cc3)CC2)cc1,inactive
11,Cc1oc(-c2ccccc2)nc1C(=O)OCC(=O)NCc1ccccc1,"inconclusive: 89.1 µM [inhibitor, single point]"
12,c1cn(CCCNC2=NCCCCC2)cn1,active: 50.1 µM
13,Cc1ccccc1-c1noc(-c2ccc(N3CCCCC3)c([N+](=O)[O-])c2)n1,"inconclusive: 89.1 µM [inhibitor, single point]"
14,CCOc1ccc(CCNC(=O)C2CCN(C(=O)N3CC(CC)Oc4ccccc43)CC2)cc1 (configuration not stated),"inconclusive: 35.5 µM [inhibitor, partial curve]"
15,COc1cccc(C(=O)Nc2ccccc2C(=O)N2CCCC2)c1,"inconclusive: 6.31 µM [inhibitor, single point]"
16,COc1cccc(NC(=O)Cn2c(=O)n(CCCC(=O)NCc3ccco3)c(=O)c3ccccc32)c1,"inconclusive: 89.1 µM [inhibitor, single point]"
17,CCCCC1=CC2=C(c3ccco3)C(=O)C(C)(OC(=O)c3ccc(OC)cc3)C(=O)C2=CN1Cc1ccccc1 (configuration not stated),"inconclusive: 35.5 µM [inhibitor, partial curve]"
18,CN(C)c1ccc(CN(Cc2ccco2)C(=O)c2ccc(C(C)(C)C)cc2)cc1,active: 11.2 µM
19,O=C(NCCc1ccc(Cl)cc1)c1cnc2sc(N3CCOCC3)nn2c1=O,inactive
20,COc1cc(CN2CCCN(C)CC2)cc([N+](=O)[O-])c1O,"inconclusive: 89.1 µM [inhibitor, single point]"
21,COc1ccc(CCNc2oc(/C=C/c3cc(OC)c(OC)c(OC)c3)nc2C#N)cc1OC,inactive
22,COc1ccc(S(=O)(=O)NCC(c2cccnc2)N2CCN(c3ccccc3)CC2)cc1C (configuration not stated),"inconclusive: 35.5 µM [inhibitor, full curve]"
23,COc1ccc(OC)c(CCNC(=O)CS(=O)(=O)Cc2nc(-c3cccc(Cl)c3)oc2C)c1,"inconclusive: 70.8 µM [inhibitor, single point]"
24,Cn1cccc1/C=C(\C#N)C(N)=S,"inconclusive: 89.1 µM [inhibitor, single point]"

row,SMILES,Potency
1,O=[N+]([O-])c1ccc(-c2nnc3cccc(Cl)n23)cc1,"inconclusive: 79.4 µM [inhibitor, partial curve]"
2,O=C(Cc1c[nH]c2ccccc12)Nc1cccc(S(=O)(=O)N2CCCCC2)c1,"inconclusive: 35.5 µM [inhibitor, partial curve]"
3,CCCCc1nnc(NC(=O)C2CC(=O)N(Cc3ccccc3)C2)s1 (configuration not stated),inactive
4,CCn1c(C(=O)NCc2ccc(F)cc2)cc2oc3ccccc3c21,inactive
5,Cc1ccccc1NC(=O)c1ccccc1NC(=O)CCC(=O)O,inactive
6,CCOc1ccc(/C=C2\SC(=S)N(CCC(=O)Nc3ccccc3C(=O)O)C2=O)cc1,"inconclusive: 63.1 µM [inhibitor, partial curve, poor fit]"
7,Cc1c(C(=O)NNC(=O)Nc2ccc([N+](=O)[O-])cc2)oc2ccccc12,"inconclusive: 89.1 µM [inhibitor, single point]"
8,O=[N+]([O-])c1cc2c(cc1/C=N/n1c(-c3ccccc3)n[nH]c1=S)OCO2,"inconclusive: 63.1 µM [inhibitor, partial curve, poor fit]"
9,Cc1cc(OCCCCCn2ccnc2)cc(C)c1Cl,"inconclusive: 39.8 µM [inhibitor, partial curve]"
10,CCOC(=O)C1CCCCN1Cc1ccc(-c2ccccc2)cc1 (configuration not stated),inactive
11,CN(C(=O)CSc1nc2ccccc2n1CCc1ccccc1)C1CCS(=O)(=O)C1 (configuration not stated),"inconclusive: 89.1 µM [inhibitor, single point]"
12,CCOc1ccc(C(=O)NCC(=O)Nc2cc(C)ccn2)cc1OCC,"inconclusive: 79.4 µM [inhibitor, single point]"
13,N=c1oc2cc(O)ccc2cc1C(=O)Nc1ccc(F)cc1,inactive
14,Cc1cc(C(=O)Nc2ccc(Br)cc2)cs1,active: 56.2 µM
15,Cc1ccc(C(OCC(O)CNC(C)c2ccccc2)c2ccccc2)cc1 (configuration not stated),active: 39.8 µM
16,Cc1nc(NS(=O)(=O)c2cccs2)c2c3c(sc2n1)CCC3,"inconclusive: 100 µM [inhibitor, single point]"
17,Cc1nn(Cc2ccc([N+](=O)[O-])cc2)c(=O)n1-c1ccc(Cl)cc1,"inconclusive: 79.4 µM [inhibitor, single point]"
18,Nc1nc(Nc2ccc(Cl)cc2)nc(NCCO)c1[N+](=O)[O-],"inconclusive: 70.8 µM [inhibitor, partial curve]"
19,Cc1nc2ccccn2c1C(=O)N/N=C/c1ccc([N+](=O)[O-])o1,active: 44.7 µM
20,Cc1[nH]c2ccccc2c1C(=O)C(=O)NC1CC1,"inconclusive: 79.4 µM [inhibitor, single point]"
21,CC(C)c1ccc(C2CC(=O)N3CN(Cc4ccco4)CSC3=C2C#N)cc1 (configuration not stated),active: 50.1 µM
22,COc1ccccc1C(C)NCC(=O)NC(=O)NCc1ccco1 (configuration not stated),active: 50.1 µM
23,CC(C)OP(=O)(c1ccc(N(C)C)cc1)C(Nc1ccccc1)c1ccccc1 (configuration not stated),"inconclusive: 50.1 µM [inhibitor, partial curve]"
24,CCCS(=O)(=O)c1nc(S(=O)(=O)c2ccc(C)cc2)c(N(C)Cc2ccccc2)s1,inactive

row,SMILES,Potency
1,CCC(C)Sc1ccc(-c2nc3ccc(C)cn3c2NC2CCCCC2)cc1 (configuration not stated),"inconclusive: 79.4 µM [inhibitor, single point]"
2,Oc1[nH]c2ccccc2c1N=NC(=S)N1CCOCC1,active: 22.4 µM
3,Cc1ccccc1C(=O)Nc1nnc2n1CCS2,"inconclusive: 89.1 µM [inhibitor, single point]"
4,Cc1ccc2nsnc2c1S(=O)(=O)NCCc1c(C)[nH]c2ccc(F)cc12,"inconclusive: 50.1 µM [inhibitor, partial curve]"
5,N#C/C(=N/Nc1ccc(OC(F)(F)F)cc1)C(N)=S,active: 35.5 µM
6,COc1ccc(Nc2nc(C(=O)N(CCO)Cc3ccccc3)cs2)cc1,active: 50.1 µM
7,CC(C)(C)c1ccc(/C=C2\Oc3cc(OC(=O)N4CCOCC4)ccc3C2=O)cc1,inactive
8,CCN(CC)c1nc2ccccc2[nH]c1=O,inactive
9,COc1ccc(Nc2c3ccccc3nc3ccccc23)cc1,"inconclusive: 50.1 µM [inhibitor, partial curve]"
10,Cc1cccc(NC(=S)N2CCN(c3ccccc3F)CC2)c1C,"inconclusive: 89.1 µM [inhibitor, single point]"
11,CCOc1ccc(-c2nnc(SCc3nc4ccccc4[nH]3)n2N)cc1,"inconclusive: 89.1 µM [inhibitor, single point]"
12,COc1ccc(N2CCN(C(=O)c3ccc4[nH]c(C)c(C)c4c3)CC2)cc1,active: 39.8 µM
13,CC1(C)Cc2c(sc3nc[nH]c(=O)c23)CO1,inactive
14,CNc1nc(-c2ccc3c(c2)CCN3C(=O)c2ccc(F)cc2)cs1,"inconclusive: 22.4 µM [inhibitor, full curve, poor fit]"
15,N#CCC(=N)N1CCN(c2ccc(F)cc2)CC1,"inconclusive: 79.4 µM [inhibitor, single point]"
16,Cc1ccc(NC(=O)CCCN2C(=S)NC(C)(C)CC2C)cc1 (configuration not stated),inactive
17,COc1ccc(CNCc2cc(OC)ccc2OC)cc1,active: 56.2 µM
18,O=C(CNCC1CCCCC1)Nc1ccc(OC(F)(F)F)cc1,active: 50.1 µM
19,CCOC(=O)c1c(CSC(=N)N)n(-c2ccc(Br)cc2)c2cc(Br)c(OC(C)=O)cc12,"inconclusive: 39.8 µM [inhibitor, partial curve]"
20,COc1cccc(C2/C(=C(\O)c3ccc4c(c3)OCCO4)C(=O)C(=O)N2c2nnc(C)s2)c1 (configuration not stated),"inconclusive: 79.4 µM [inhibitor, single point]"
21,O=C(Nc1ccc(CN2CCOCC2)cc1)c1ccc(N2CCCC2)c([N+](=O)[O-])c1,"inconclusive: 50.1 µM [inhibitor, partial curve]"
22,COc1ccc(NC(=S)NCCc2ccc(Cl)cc2)c(OC)c1,"inconclusive: 44.7 µM [inhibitor, partial curve]"
23,COc1ccc2c(C)cc(SCC(=O)Nc3ncc(Cl)cc3Cl)nc2c1,inactive
24,Cc1ccnc(NS(=O)(=O)c2ccc(NC(=O)c3ccc(S(=O)(=O)N4CC(C)OC(C)C4)cc3)cc2)n1 (configuration not stated),"inconclusive: 89.1 µM [inhibitor, single point]"
